Data from article PMC12136788.
The other results are listed elsewhere or left out.

T1: UNK ZnF1-3 (human, UniProt Q9C0B0 31-174)
T1 sequence: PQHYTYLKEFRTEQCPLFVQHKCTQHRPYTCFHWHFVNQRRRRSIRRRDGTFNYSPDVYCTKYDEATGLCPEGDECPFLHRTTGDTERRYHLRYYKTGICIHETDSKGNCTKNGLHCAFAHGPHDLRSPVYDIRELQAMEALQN

B1: chr11:47008823:47008824:+_ENSG00000149179_ENST00000278460|hu_mus|motif|central (ssRNA)
RNA: GGGAGUUCUACAGUCCGACGAUCUCCUUGGCAUACGCUGUUAAAAUAGUCAGUGAAGAACCGGGCAAUGCCAUACUGGCGGAUAUCCUCCCUGUUCUCCAGCAGCUGGCACACUGCAUCCUCCAUGUACGUGAGGACAUGUCUCAACAGAGGAUUGAGCAUCA
B2: chr10:33190432:33190433:-_ENSG00000150093_ENST00000302278|hu_mus|hu_hu_hu_mus_True|8_98 (ssRNA)
RNA: GGGAGUUCUACAGUCCGACGAUCUACAUUUUCCAAACCUGCACAUGAAUAAAACCCUGGCCACAGAGCCCCAAAACUACCCUACUGUGACUAAGAUGCUGCUGCUGUGAGCUUGGUGUUGCAAAAUUUUGCACGGGAGGAUUCCAACAGAGGAUUGAGCAUCA
B3: chr1:39494447:39494448:+_ENSG00000168653_ENST00000372967|hu_mus|hu_hu_hu_mus_False|1_58 (ssRNA)
RNA: GGGAGUUCUACAGUCCGACGAUCGCACCGAGCGGCGUUCUUAUAGGGCUGUUCUGCGCUUAGGAACAUAAAGUGCCGAUCUAUGUUGAUGCCCAGCUUUUUCUGUAUGUCAAGGAAAGGCAUGGCUCUGCAGUGCCCCCUUGACAACAGAGGAUUGAGCAUCA
B4: chr1:109605286:109605287:-_ENSG00000197780_ENST00000461096|hu_mus|hu_hu_hu_mus_True|98_98 (ssRNA)
RNA: GGGAGUUCUACAGUCCGACGAUCAAGUUUCAGAGUAUUCAGUGAUCACCUCUUUAAAUGCAAUUAUCCUUAUUAUAAGCUAAGCAGAAUAAUAAUUUAAUACCGUAAGUGAACUACACACAAAGCCUGAACCGCGAAAAUGGUCAACAGAGGAUUGAGCAUCA
B5: chr13:55314840:55314841:+_ENSMUSG00000021488_ENSMUST00000099490|mus_hu|motif|central (ssRNA)
RNA: GGGAGUUCUACAGUCCGACGAUCAUCACUUUUUUCAGGGUCUUGAAAGGAUUCUGAUCCAUCAGCAGACCCAUUUAAAUACUCGGCAUUGAUCAUGGAGGCCAAAUCCUGUAGUCUCCGCAGUGGAAUGUAACAAGAUGGAGACAACAGAGGAUUGAGCAUCA
B6: chr9:71842732:71842733:+_ENSG00000119139_ENST00000377245|hu_mus|FALSE|FALSE (ssRNA)
RNA: GGGAGUUCUACAGUCCGACGAUCAUCCUGAUCAGAAUACUGCUGGCGUCUCUCCUCUGGAGAGAAAGACCGGUUGGACUCUAUUUCCGAGAUAUCCUCCACUUCAGAGUCGCUGUCGUUUAGGGCUGGGAUGUUGAUGAGGGUCAACAGAGGAUUGAGCAUCA
B7: chr12:48362563:48362564:+_ENSG00000134291_ENST00000256686|hu_hu|hu_hu_hu_mus_False|28_88 (ssRNA)
RNA: GGGAGUUCUACAGUCCGACGAUCUCCGUCAAGCCCUUCGAUAGACCCAUAGACUCUAAACUGUAAUCACUUUGUAUGGGGAAGGAAAAGAAACGCCAAAAACUUUCUUUCUUUCUUGGGUGGGGUGAGGCGGGAGGGGGAGGUCAACAGAGGAUUGAGCAUCA
B8: chr3:123074269:123074270:-_ENSMUSG00000028114_ENSMUST00000029759|perfect_dup|FALSE|FALSE (ssRNA)
RNA: GGGAGUUCUACAGUCCGACGAUCGCGUCUUCUACCAAGACAAAAAUGCUCAAUUAUAUGAAAAAUUUCUACAGGUUUUUCUAUAUUGCCAAUUUCAGGUUCUUCUGUGAUAAUUAAGUCAAUGUCAACAUUAGCAUGAAUGAACAACAGAGGAUUGAGCAUCA
B9: chr16:94653416:94653417:+_ENSMUSG00000040785_ENSMUST00000117648|mus_mus|motif|central (ssRNA)
RNA: GGGAGUUCUACAGUCCGACGAUCCACGACGUGGAAAUCAAGCUCCUUGAGAGAUGCUCCGUACCGAGUGAAAAAGGGUCCGGUGGCAUCCAAGCCAAAACUAUUCAGUCUCUGGAUCCAGGGAGCCAACUUGGGGUCUAACUCCAACAGAGGAUUGAGCAUCA
B10: chr1:95363323:95363324:-_ENSG00000117519_ENST00000538964|hu_mus|FALSE|FALSE (ssRNA)
RNA: GGGAGUUCUACAGUCCGACGAUCGGACUAAAUACUGCGCUCCUGUGUGUGACUCUAAUAAUCAAUGCCCUGGUCGUCGCCAUACUGGUACUCCCGAGGGUAGUCGUCUGGGUACUCGCCAUGAUAUUCAUCGGGGUAUUCUGCCAACAGAGGAUUGAGCAUCA
B11: chr8:74858975:74858976:-_ENSG00000154582_ENST00000284811|hu_mus|motif|central (ssRNA)
RNA: GGGAGUUCUACAGUCCGACGAUCGACCUUGUAGGUAAAAUACAUGCACACUUUUGAUAGCACAUGUGAGGGGAUCUCUCGGAAAUUGACCUCGUUGGUUUCAUUCUCAGCAAACUGACCUGGACCACUCAACAUAGCCUUUAUCAACAGAGGAUUGAGCAUCA
B12: chr1:163112212:163112213:-_ENSG00000143248_ENST00000313961|hu_hu|hu_hu_hu_mus_False|1_108 (ssRNA)
RNA: GGGAGUUCUACAGUCCGACGAUCUUUAUUUAUCCAGAAGAGUGAGUUACAUACUAGGCAAAGUAUUGGAUACAAUAAUCAGGAAACAAACACUAUUGGUCCAGAAUUUAAAACUUUAUGAGCGAAGUGCUGGCACAGGAUUUACAACAGAGGAUUGAGCAUCA
B13: chr4:58499471:58499472:-_ENSMUSG00000038668_ENSMUST00000055018|mus_mus|motif|central (ssRNA)
RNA: GGGAGUUCUACAGUCCGACGAUCAGCGUAGAGAACCACCAUGACCACAAAGGUCACCAGGUUGAAAAUGGCCCAGAAGACGGAGUAGGAGUCACUGUAGAGGGGUGCCAUGUUGGAACAGUGAUCGAUAUCACAGAUGCAGUUCAACAGAGGAUUGAGCAUCA
B14: chr2:179515052:179515053:+_ENSMUSG00000000305_ENSMUST00000000314|mus_hu|mus_mus_mus_hu_False|88_88 (ssRNA)
RNA: GGGAGUUCUACAGUCCGACGAUCGCUGUCCCAUGCAGUCACCGUGAAGGCCACCUGCUCGGAGGGGACCUGCAGCUCCCGGGUGGCGAAGACUGUCCCAUCUGCCCCAACUUUGAAGUCCAUGCUGUUGGUCUCAUAUUGUGUCAACAGAGGAUUGAGCAUCA
B15: chr16:94690093:94690094:+_ENSMUSG00000040785_ENSMUST00000117648|mus_hu|mus_mus_mus_hu_True|28_68 (ssRNA)
RNA: GGGAGUUCUACAGUCCGACGAUCGGGCUGGGAUGACGGACACACAGCCUCGAUUCCAGGGGGAAAAAAAAAUAGCCGAUACUAAUUAAAAAGUGUUAAUGAUUUUUAUUACCAAAAUUACAUCUAUAAAAGAUGAAAAGCAAACAACAGAGGAUUGAGCAUCA
B16: chr14:78183846:78183847:+_ENSG00000119705_ENST00000557342|hu_hu|hu_hu_hu_mus_False|98_108 (ssRNA)
RNA: GGGAGUUCUACAGUCCGACGAUCUCUGUCUCAAAAAUCUUUCUUUUAUGUUUGAGCUCCGUGCAAAGCCUUUGCUCUUUGAGCUUGAACGUGGAUCUAUGGGAGGGAAAGCACUGUCAGAAAAGGUAAUUUUUUUUUUAAAGACAACAGAGGAUUGAGCAUCA
B17: chr7:135612270:135612271:-_ENSG00000105887_ENST00000393085|hu_mus|hu_hu_hu_mus_False|38_98 (ssRNA)
RNA: GGGAGUUCUACAGUCCGACGAUCGUUUUUUUCUGAGUAAGUAUUACGUACUUCAGUGGAAAACAAAACUUAACCUUUUAUUAAUGCGUGUUGUACCAGAAAGCAAAAUUUUAGCUUCAUUUAUUCAAAAAUAUUAACAUUAAGCAACAGAGGAUUGAGCAUCA
B18: chr4:57314706:57314707:+_ENSG00000128050_ENST00000264221|hu_mus|hu_hu_hu_mus_True|78_108 (ssRNA)
RNA: GGGAGUUCUACAGUCCGACGAUCCAGUAUUUCAAAUAUAGCUUGUGUGGCAUGACUCAUGAUAUCCACUUCAGUCUGCCCUAUAACAAGGCCAGCAAAACAGAAUUUUGCAGCAAUGAGUUGCUCCUCAGACCACUGUGGAUCCAACAGAGGAUUGAGCAUCA
B19: chr4:115894766:115894767:+_ENSMUSG00000028698_ENSMUST00000030464|mus_hu|mus_mus_mus_hu_True|18_58 (ssRNA)
RNA: GGGAGUUCUACAGUCCGACGAUCUUCCACACGGAAAUGUACUUCGGGUUUUCCAACGGCCAGUACCAGUCCGGCCAACUACUAGGAACAGGGUCCUCCCCCUCUCUCCUACAGAACUAAAGCACCCGCCCCCGAACUUUCAAGCAACAGAGGAUUGAGCAUCA
B20: chr6:82862619:82862620:-_ENSMUSG00000000627_ENSMUST00000000641|mus_mus|motif|central (ssRNA)
RNA: GGGAGUUCUACAGUCCGACGAUCAACCUGCUUGUAAUUUCCUACACACUUUUCUGGGUUCCUUUUGUCAUCCCUCAAUAGCGGGAAUGUUGUGAAGUUCAUUUUAAAUGGAAGCCAAGGAAAGAGGGCUCAGCCUCCACUCCACAACAGAGGAUUGAGCAUCA
B21: chrX:71549400:71549401:+_ENSMUSG00000019087_ENSMUST00000019231|mus_hu|mus_mus_mus_hu_False|8_78 (ssRNA)
RNA: GGGAGUUCUACAGUCCGACGAUCGCAGUAGGAAGAGGGAAGCUCUUCAGUCCAGUGGUCACAAAACUGGGAAAGCAACAACACGGACACCGUCCCACCCUCAACCCCCCCACUGGCACAGGGUCACAUCUGGGUCAUCAAAGACAACAGAGGAUUGAGCAUCA
B22: 6858023_6858143_687_CDS_ENSG00000089693_ENST00000435120|human|control|control (ssRNA)
RNA: GGGAGUUCUACAGUCCGACGAUCGGGAGGCCCCUCCGCCCUUCGUCCCCCAGCCCCUGAGGACUCAAGCCGCCGAAACUCCAGGGGACGCUGCUGCCGGAAUCGGGAGGUCUCCCGCCGCCACUCGUCAUCAAACGCUGCGGCCAACAGAGGAUUGAGCAUCA

Each binder was assayed against T1, UNK ZnF1-3 (assay: nsRBNS (natural sequence RNA bind-n-seq); RBNS binding buffer (assumed for nsRBNS): 25 mM Tris pH 7.5, 150 mM KCl, 3 mM MgCl2, 0.01% Triton X-100, 500 ug/ml BSA, 20 U/ml SUPERase-In, 4 C; UNK is unkempt and MSI1 is Musashi-1; names of the RNAs are library labels; protein concentration not given here; high values mean tight binding).

Point of comparison: B18, binding signal 1.03 enrichment R. Against it:
- B1 — lower, 0.645 enrichment R
- B2 — higher, 1.21 enrichment R
- B3 — lower, 0.632 enrichment R
- B4 — lower, 0.773 enrichment R
- B5 — lower, 0.775 enrichment R
- B6 — lower, 0.656 enrichment R
- B7 — higher, 2.1 enrichment R
- B8 — higher, 1.05 enrichment R
- B9 — lower, 0.756 enrichment R
- B10 — lower, 0.745 enrichment R
- B11 — lower, 0.747 enrichment R
- B12 — higher, 1.56 enrichment R
- B13 — higher, 1.48 enrichment R
- B14 — lower, 0.87 enrichment R
- B15 — higher, 3.01 enrichment R
- B16 — higher, 1.47 enrichment R
- B17 — higher, 1.24 enrichment R
- B19 — higher, 1.14 enrichment R
- B20 — lower, 0.74 enrichment R
- B21 — higher, 1.98 enrichment R
- B22 — lower, 0.992 enrichment R
